The supplement of paper PMC4604168 (melanoma cell lines)
Some of the results follow. Most values come without repeats; read them as rough.

Legend:
Experiment in all cases: cell count relative to DMSO control; melanoma cells; higher = more viable cells
Conditions in all cases: library dose: low library concentration; 72 h
MZ2-MEL = tested on: MZ2-MEL
MeWo = tested on: MeWo
RPMI7951 = tested on: RPMI7951
RVH-421 = tested on: RVH-421
SkMel28 = tested on: SkMel28
SkMel2 = tested on: SkMel2
SkMel30 = tested on: SkMel30
SkMel5 = tested on: SkMel5
UACC257 = tested on: UACC257
UACC62 = tested on: UACC62
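Further: cell number obtained by counting DAPI-stained nuclei in high-throughput microscope images with image analysis software, screen run in 1,536-well plates.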

Row | SMILES | cell count (MZ2-MEL) | cell count (MeWo) | cell count (RPMI7951) | cell count (RVH-421) | cell count (SkMel28) | cell count (SkMel2) | cell count (SkMel30) | cell count (SkMel5) | cell count (UACC257) | cell count (UACC62)
1 | CCCS(=O)(=O)Nc1ccc(F)c(C(=O)c2c[nH]c3ncc(Cl)cc23)c1F + CO[C@@H]1[C@H](N(C)C(=O)c2ccccc2)C[C@H]2O[C@]1(C)n1c3ccccc3c3c4c(c5c6ccccc6n2c5c31)C(=O)NC4 [Midostaurin] (first compound 0.08 µM, partner dose 0.08 µM) | 84.8% | 88.5% | 104% | 73.5% | 101% | 84.5% | 119% | 108% | 82.2% | 72.1%
2 | NC1(c2ccc(-c3nc4ccn5c(=O)[nH]nc5c4cc3-c3ccccc3)cc2)CCC1 + Cn1cc(/C=C2\C(=O)Nc3cccnc32)c2ccccc21 [GW441756] (first compound 0.4 µM, partner dose 0.4 µM) | 95.8% | 89.7% | 96.9% | 87.8% | 63.1% | 97.4% | 88.3% | 79.5% | 70.9% | 84.3%
3 | CS(=O)(=O)c1ccc(C(=O)Nc2ccc(Cl)c(-c3ccccn3)c2)c(Cl)c1 [vismodegib] + CC1(C)NC(=O)N(c2ccc([N+](=O)[O-])c(C(F)(F)F)c2)C1=O [nilutamide] (first compound 1 µM, partner dose 1 µM) | 98.2% | 97.2% | 126% | 103% | 102% | 88.7% | 98.2% | 107% | 120% | 88.8%
4 | NC1(c2ccc(-c3nc4ccn5c(=O)[nH]nc5c4cc3-c3ccccc3)cc2)CCC1 + COc1cc2c(Oc3ccc4[nH]c(C)cc4c3F)ncnc2cc1OCCCN1CCCC1 [cediranib] (first compound 0.4 µM, partner dose 0.4 µM) | 93.6% | 91.2% | 91.7% | 88.1% | 77.9% | 90.5% | 86.5% | 83.7% | 88.7% | 76.1%
5 | CCCS(=O)(=O)Nc1ccc(F)c(C(=O)c2c[nH]c3ncc(Cl)cc23)c1F + O=C(CCCCCCC(=O)Nc1ccccc1)NO [vorinostat] (first compound 0.08 µM, partner dose 0.08 µM) | 88.1% | 94.2% | 111% | 83.1% | 79.8% | 100% | 79% | 102% | 73.9% | 82.7%
6 | NC1(c2ccc(-c3nc4ccn5c(=O)[nH]nc5c4cc3-c3ccccc3)cc2)CCC1 + CC(C)CCN1c2nc(Nc3cc(F)c(O)c(F)c3)ncc2N(C)C(=O)C1C [BID1870] (first compound 0.4 µM, partner dose 0.2 µM) | 96.4% | 87.7% | 96.4% | 94.3% | 77.4% | 82.3% | 84.1% | 106% | 84.5% | 72.5%
7 | C=C(c1ccc(C(=O)O)cc1)c1cc2c(cc1C)C(C)(C)CCC2(C)C [Bexarotene] + O=C(Nc1ccccc1)c1cc([N+](=O)[O-])ccc1Cl [GW9662] (first compound 2 µM, partner dose 2 µM) | 1.8% | 84.7% | 74.5% | 84.8% | 77.9% | 85.7% | 110% | 84.8% | 118% | 82.7%
8 | C=C(c1ccc(C(=O)O)cc1)c1cc2c(cc1C)C(C)(C)CCC2(C)C [Bexarotene] + C=CCn1c(=O)c2cnc(Nc3ccc(N4CCN(C)CC4)cc3)nc2n1-c1cccc(C(C)(C)O)n1 [MK1775] (first compound 2 µM, partner dose 0.02 µM) | 100% | 94.9% | 76.4% | 69.2% | 71.8% | 93.3% | 105% | 93.7% | 103% | 87.8%
9 | CN(c1ncccc1CNc1nc(Nc2ccc3c(c2)CC(=O)N3)ncc1C(F)(F)F)S(C)(=O)=O + Cc1cc(N2CCOCC2)cc2[nH]c(-c3c(NC[C@@H](O)c4cccc(Cl)c4)cc[nH]c3=O)nc12 [BMS536924] (first compound 0.08 µM, partner dose 0.2 µM) | 94.7% | 101% | 86.7% | 87.3% | 106% | 93.9% | 91.9% | 91.9% | 75.9% | 107%
10 | CCCS(=O)(=O)Nc1ccc(F)c(C(=O)c2c[nH]c3ncc(Cl)cc23)c1F + CN(NC(=O)CC(=O)NN(C)C(=S)c1ccccc1)C(=S)c1ccccc1 [STA4783] (first compound 0.08 µM, partner dose 0.006 µM) | 90.8% | 84.7% | 112% | 67.9% | 71.7% | 93% | 88% | 114% | 80.9% | 54.8%
11 | CS(=O)(=O)c1ccc(C(=O)Nc2ccc(Cl)c(-c3ccccn3)c2)c(Cl)c1 [vismodegib] + O=C(O)c1ccc(-c2c[nH]c3ncc(-c4ccccc4)cc23)cc1C1CCCC1 [GSK650394] (first compound 1 µM, partner dose 0.16 µM) | 103% | 86.3% | 105% | 96.6% | 102% | 97% | 96.8% | 97.5% | 104% | 109%
